In all, about 420,000 compounds went through this assay and about 50,000 (12%) were called active. This list was built around the results that the source calls inconclusive (neither active nor inactive); the mix of calls is not that of the screen. The call rests on the fitted dose curve; in most records, active means well fitted inhibition curve with a large enough effect; inconclusive means small, poorly fitted or top-dose-only effect; inactive means flat fitted curve, though single readings scatter. Potencies of inconclusive entries are left out as doubtful fits.
assay: qHTS for Inhibitors of human tyrosyl-DNA phosphodiesterase 1 (TDP1): qHTS in cells in presence of CPT; conditions: chicken DT40 Tdp1-/-;hTDP1 cells + 20 nM CPT, ATP luminescence, 48 h; activity change, negative = growth inhibition: at 46.2 µM (top of the series) unless noted; further: nearly all actives have a fitted effect of over 55% in size
In short: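 Cell growth measured by CellTiter-Glo luminescence after a minimum 48 h, 37 C compound exposure with 20 nM CPT in Tdp1-knockout DT40 cells stably expressing hTDP1, seeded 400/well; qHTS titration format.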
On the % scale 0 is the no-effect control and ±100 the full control effect; potency means the concentration at half of the fitted maximal effect; tags describe the fitted curve by direction and shape.

SMILES	Potency	activity change, negative = growth inhibition
CCCCn1c(=O)c(C(=O)NC(C)c2ccccc2)c(O)c2ccccc21 (centres undefined)	inconclusive [inhibitor, single point]	–
Cc1cc(-c2nc3ccccc3s2)ccc1NC(=O)c1cc(Cl)ccc1Cl	inconclusive [inhibitor, single point]	–
CC1(C(O)(C#CCN2CCCCC2)c2ccccc2)CCCC1 (centres undefined)	inconclusive [inhibitor, single point]	–
C[N+]1(C)[C@@H]2CC[C@H]1CC(OC(=O)C(c1ccccc1)c1ccccc1)C2 (some centres undefined)	inconclusive [inhibitor, single point]	–
CNC(=O)ON(C(=O)NC)C1N(C)C(=S)SC1(C)C (centres undefined)	inconclusive [inhibitor, partial curve]	–
CN1C[C@H](C(=O)NC2(C)OC3(O)[C@@H]4CCCN4C(=O)[C@H](Cc4ccccc4)N3C2=O)CC2c3cccc4[nH]cc(c34)C[C@H]21 (some centres undefined)	active: 16.4 µM	–
CCN(CC)C(=O)c1ccc(NC(=O)CCn2nc(-c3ccc(Cl)cc3)c3ccccc3c2=O)cc1	inconclusive [inhibitor, single point]	–
COc1ccc2[nH]cc(CCN(C(C)C)C(C)C)c2c1	inconclusive [inhibitor, partial curve]	–
CCCC/C(C)=C/[C@@H](NP(=O)(c1ccccc1)c1ccccc1)c1ccccc1	inconclusive [inhibitor, single point]	–
CC(=O)C(Sc1ncnc2c1nnn2-c1ccc(F)cc1)C(=O)N(C)C (centres undefined)	active: 20.6 µM	–
CN1C[C@@H](NS(=O)(=O)N(C)C)C[C@@H]2c3cccc4c3c(cn4C)C[C@H]21	–	inactive: -29.5%
CCOP(=O)(OCC)C1(O)C(=O)Nc2ccc(Br)cc21 (centres undefined)	inconclusive [inhibitor, single point]	–
COC(=O)C1=C(c2ccc(F)cc2F)C[C@@H]2CC[C@H]1N2C(=O)N1CCC(C)CC1	active: 16.4 µM	–
O=C(NCc1cccnc1)C1CCN(S(=O)(=O)c2cc([N+](=O)[O-])ccc2Cl)CC1	inconclusive [inhibitor, single point]	–
CCCC[N+]12C3C[C@H](C4[C@H](O)[C@]5(C[C@@H]41)c1ccccc1N(C)[C@@H]35)[C@H](CC)[C@H]2O (some centres undefined)	inconclusive [inhibitor, single point]	–
CN1[C@@H]2CC[C@H]1CC(O[C@@H](c1ccccc1)c1ccc(Cl)cc1)C2 (some centres undefined)	active: 2.66 µM	–
O=P(Oc1ccccc1)(Oc1ccccc1)c1ccccc1	inconclusive [inhibitor, single point]	–

SMILES	Potency	activity change, negative = growth inhibition
COc1cc(CN2CCN(C(=O)COc3ccccc3)CC2)cc(OC)c1OC	–	inactive: -5.21%
O=c1[nH]c(=O)n(-c2ccc(F)cc2)c(O)c1C=Nc1ccccc1N1CCCC1	inconclusive [inhibitor, single point]	–
CCOc1ccc(CN(CCc2ccc3c(c2)OCO3)Cc2cccc(C)c2)cc1	active: 16.4 µM	–
CC(C)(O)C(Cl)(Cl)Cl	inconclusive [inhibitor, single point]	–
CC(C)c1cccc(C(C)C)c1OC(=O)NC(=O)c1c(F)cccc1F	inconclusive [inhibitor, single point]	–
COc1ccccc1N1CCN(Cc2cccc(OC)c2O)CC1	inconclusive [inhibitor, partial curve]	–
COCC(=O)N1Cc2ccccc2-n2nncc2C1	–	inactive: -4.16%
CN(C)c1ccc(/C=C2\CC3C4CC=C5CC(O)CCC5(C)C4CCC3(C)C2=O)cc1 (centres undefined)	inconclusive [inhibitor, single point]	–
O=C(Cc1ccccc1)N1CCN(Cc2ccc(Cl)cc2)CC1	inconclusive [inhibitor, single point]	–
O=c1c([N+](=O)[O-])cn(O)cc1[N+](=O)[O-]	–	inactive: -17.4%
O=C(C(=O)N1CCOCC1)c1cn(Cc2ccccc2Cl)c2ccccc12	inconclusive [inhibitor, single point]	–
CN1C(=O)NC(=O)/C(=C/c2ccc([N+](=O)[O-])s2)C1=O	active: 4.11 µM	–
CCN(CC)C(=O)c1ccc(NC(=O)CCn2nc(-c3ccc(C)cc3)c3ccccc3c2=O)cc1	active: 18.4 µM	–
CC(=O)Oc1ccc(/C=C/c2cc(OC(C)=O)cc(OC(C)=O)c2)cc1	inconclusive [inhibitor, single point]	–
COc1cc([C@@H]2c3cc4c(cc3[C@@H](OC)[C@H]3COC(=O)[C@H]23)OCO4)cc(OC)c1O	active: 1.16 µM	–
O=C(c1ccc(Cl)cc1)C1CCCN(Cc2ccc3nonc3c2)C1 (centres undefined)	active: 16.4 µM	–
O=C1c2ccccc2-n2nnnc2C2c3ccccc3-n3nncc3CN12 (centres undefined)	–	inactive: -11.7%

From PubChem BioAssay AID686979 (National Center for Advancing Translational Sciences (NCATS), 2013)
